Some test systems named below: DMS 273 small cell lung; P388/ADR leukemia; KM20L2 colon; RPMI-8226 leukemia; HS 578T breast; HOP-62 NSCLC; NCI/ADR-RES ovarian; NCI-H23 lung; HL-60(TB) leukemia.
Holding throughout (assay): NCI tumour cell line growth inhibition, 48 h

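Step 1: Grow cells in 96-well plates. Step 2: Expose to compound for 48 hours at 5 concentrations. Step 3: Interpolate endpoints linearly; if unreached, use highest concentration. GI50 = concentration required for 50% inhibition of growth.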 A number of entries come with more than one value. This list holds those alone. An entry can have further records. For some of these results: The tests behind the records often covered other concentration ranges, which the source does not state; a value can be the end of its range.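 TGI: concentration producing complete growth inhibition.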 For some of these results: Values that stand side by side are repeats across runs, samples, wells, individuals or studies. Marks in square brackets tell the records apart. Letters count within one entry. Some results are limits rather than exact numbers.

Take `C=C1C(=O)O[C@H]2[C@H]1[C@@H](OC(=O)C=C(C)C)CC1=C[C@@H](C[C@@]3(C)O[C@@H]23)OC1=O`: the TGI in the experiment with DMS 273 small cell lung was 3.08 µM and 47.7 µM; with KM20L2 colon it was 949 nM and 22.1 µM. The GI50 is 192 nM and 2.38 µM with P388/ADR leukemia; 139 nM and 6.16 µM in the experiment with KM20L2 colon.

For the compound `O=C(Nc1cccc(Cl)c1)c1cc2ccccc2cc1O`, the TGI with RPMI-8226 leukemia is 6.04 µM [sample A, 1 test] and > 100 µM [sample B, 1 test]; with HS 578T breast, > 100 µM [sample A, 1 test] and 9.05 µM [sample B, 1 test]; in the experiment with HOP-62 NSCLC it was 9.3 µM [sample A, 1 test] and > 100 µM [sample B, 1 test]; with NCI/ADR-RES ovarian, 7.45 µM [sample A, 1 test] and > 100 µM [sample B, 1 test]; with NCI-H23 lung, 7.38 µM [sample A, 1 test] and > 100 µM [sample B, 1 test]; in the experiment with HL-60(TB) leukemia, 7.11 µM [sample A, 1 test] and > 100 µM [sample B, 1 test].

These data come from PubChem BioAssay (NCI).
